Source: the supplement of paper PMC8728848
The other results are listed elsewhere or left out.

What was measured:
Assay in all cases: glycan array binding signal (z-score within array); higher = stronger binding
Conditions in all cases: glycan notation: IUPAC condensed, linker removed
[1] = molecular target: GlcNAc(b1-3)Gal(b1-4)GlcNAc(b1-3)Gal(b1-4)GlcNAc(b1-3)Gal(b1-4)GlcNAc(b1-3)Gal(b1-4)GlcNAc(b1-2)[GlcNAc(b1-3)Gal(b1-4)GlcNAc(b1-3)Gal(b1-4)GlcNAc(b1-3)Gal(b1-4)GlcNAc(b1-3)Gal(b1-4)GlcNAc(b1-6)]Man(a1-6)[GlcNAc(b1-3)Gal(b1-4)GlcNAc(b1-3)Gal(b1-4)GlcNAc(b1-3)Gal(b1-4)GlcNAc(b1-3)Gal(b1-4)GlcNAc(b1-2)Man(a1-3)]Man(b1-4)GlcNAc(b1-4)[Fuc(a1-6)]GlcNAc
Procedure, shortened: (§1)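 Glycan array data came from 3228 arrays in the Consortium for Functional Glycomics database, and only arrays with an available protein sequence were kept. Glycan names were put into IUPAC-condensed notation, and columns mapping to the same glycan were averaged. The binding signal is a within-array Z-score, averaged across arrays of one protein sequence run at different concentrations or buffers and across linkers. A negative Z-score can be read as non-binding.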

[2] = molecular target: GlcNAc(b1-3)Gal(b1-4)GlcNAc(b1-3)Gal(b1-4)GlcNAc(b1-3)GalNAc
Procedure, shortened: as §1

[3] = molecular target: GlcNAc(b1-3)Gal(b1-4)GlcNAc(b1-3)GalNAc
Procedure, shortened: as §1

[4] = molecular target: GlcNAc(b1-3)Gal(b1-4)GlcNAc(b1-3)[GlcNAc(b1-3)Gal(b1-4)GlcNAc(b1-3)]GalNAc
Procedure, shortened: as §1

[5] = molecular target: GlcNAc(b1-3)Gal(b1-4)GlcNAc(b1-6)[Gal(b1-3)]GalNAc
Procedure, shortened: as §1

[6] = molecular target: GlcNAc(b1-3)Gal(b1-4)GlcNAc(b1-6)[GlcNAc(b1-3)Gal(b1-3)]GalNAc
Procedure, shortened: as §1

[7] = molecular target: GlcNAc(b1-3)Gal(b1-4)GlcNAc(b1-6)[GlcNAc(b1-3)]Gal(b1-4)GlcNAc
Procedure, shortened: as §1

GlcNAc(b1-3)GalNAc = molecular target: GlcNAc(b1-3)GalNAc
Procedure, shortened: as §1

GlcNAc(b1-3)Man = molecular target: GlcNAc(b1-3)Man
Procedure, shortened: as §1

[8] = molecular target: GlcNAc(b1-3)[GlcNAc(b1-4)][GlcNAc(b1-6)]GlcNAc
Procedure, shortened: as §1

[9] = molecular target: GlcNAc(b1-3)[GlcNAc(b1-6)]Gal(b1-4)GlcNAc
Procedure, shortened: as §1

[10] = molecular target: GlcNAc(b1-3)[GlcNAc(b1-6)]GalNAc
Procedure, shortened: as §1

[11] = molecular target: GlcNAc(b1-3)[GlcNAc(b1-6)]GlcNAc(b1-4)GlcNAc
Procedure, shortened: as §1

[12] = molecular target: GlcNAc(b1-4)Gal(b1-4)GlcNAc
Procedure, shortened: as §1

GlcNAc(b1-4)GlcNAc = molecular target: GlcNAc(b1-4)GlcNAc
Procedure, shortened: as §1

[13] = molecular target: GlcNAc(b1-4)GlcNAc(b1-4)GlcNAc
Procedure, shortened: as §1

[14] = molecular target: GlcNAc(b1-4)GlcNAc(b1-4)GlcNAc(b1-4)GlcNAc(b1-4)GlcNAc
Procedure, shortened: as §1

[15] = molecular target: GlcNAc(b1-4)GlcNAc(b1-4)GlcNAc(b1-4)GlcNAc(b1-4)GlcNAc(b1-4)GlcNAc
Procedure, shortened: as §1

[16] = molecular target: GlcNAc(b1-4)[GlcNAc(b1-6)]GalNAc
Procedure, shortened: as §1

[17] = molecular target: GlcNAc(b1-6)Gal(b1-4)GlcNAc
Procedure, shortened: as §1

GlcNAc(b1-6)GalNAc = molecular target: GlcNAc(b1-6)GalNAc
Procedure, shortened: as §1

[18] = molecular target: GlcNAc6S(b1-3)Gal(b1-4)GlcNAc
Procedure, shortened: as §1

Kdn(a2-3)Gal(b1-3)GalNAc = molecular target: Kdn(a2-3)Gal(b1-3)GalNAc
Procedure, shortened: as §1

Kdn(a2-3)Gal(b1-3)GlcNAc = molecular target: Kdn(a2-3)Gal(b1-3)GlcNAc
Procedure, shortened: as §1

Kdn(a2-3)Gal(b1-4)Glc = molecular target: Kdn(a2-3)Gal(b1-4)Glc
Procedure, shortened: as §1

Kdn(a2-3)Gal(b1-4)GlcNAc = molecular target: Kdn(a2-3)Gal(b1-4)GlcNAc
Procedure, shortened: as §1

[19] = molecular target: Kdn(a2-3)Gal(b1-4)[Fuc(a1-3)]GlcNAc
Procedure, shortened: as §1

Kdn(a2-6)Gal(b1-4)GlcNAc = molecular target: Kdn(a2-6)Gal(b1-4)GlcNAc
Procedure, shortened: as §1

[20] = molecular target: Man(a1-2)Man(a1-2)Man(a1-3)Man
Procedure, shortened: as §1

[21] = molecular target: Man(a1-2)Man(a1-2)Man(a1-6)[Man(a1-3)]Man
Procedure, shortened: as §1

Man(a1-2)Man(a1-3)Man = molecular target: Man(a1-2)Man(a1-3)Man
Procedure, shortened: as §1

[22] = molecular target: Man(a1-2)Man(a1-3)[Man(a1-2)Man(a1-6)]Man
Procedure, shortened: as §1

[23] = molecular target: Man(a1-2)Man(a1-3)[Man(a1-2)Man(a1-6)]Man(a1-6)[Man(a1-2)Man(a1-2)Man(a1-3)]Man
Procedure, shortened: as §1

[24] = molecular target: Man(a1-2)Man(a1-3)[Man(a1-2)Man(a1-6)]Man(a1-6)[Man(a1-2)Man(a1-2)Man(a1-3)]Man(b1-4)GlcNAc(b1-4)GlcNAc
Procedure, shortened: as §1

[25] = molecular target: Man(a1-2)Man(a1-3)[Man(a1-6)]Man(a1-6)[Man(a1-2)Man(a1-3)]Man(b1-4)GlcNAc(b1-4)GlcNAc
Procedure, shortened: as §1

[26] = molecular target: Man(a1-2)Man(a1-6)[Man(a1-3)]Man(a1-6)[Man(a1-2)Man(a1-2)Man(a1-3)]Man
Procedure, shortened: as §1

[27] = molecular target: Man(a1-2)Man(a1-6)[Man(a1-3)]Man(a1-6)[Man(a1-2)Man(a1-2)Man(a1-3)]Man(b1-4)GlcNAc(b1-4)GlcNAc
Procedure, shortened: as §1

Man(a1-3)[Man(a1-6)]Man = molecular target: Man(a1-3)[Man(a1-6)]Man
Procedure, shortened: as §1

B1: DBA (Dolichos biflorus) (protein)
chain: ANIQSFSFKNFNSPSFILQGDATVSSGKLQLTKVKENGFPLRFPSGRAFYSSPIQIYDKFTGAVASWATSFTVKISAPSKASFADGIAFALVPVGSEPRRNGGYLGVFDSDVYNNSAQTVAVEFDTLSNSGWDPSMKHIGIDVNSIKSIATVSWDLANGENAEILITYNAATSLLVVSLVHPSRRTSYILSERVDITNELPEYVGVGFSATTGLSEGYIETHDVLSWSFASRLPDDSTAEPLDLARYLVRNVL
glycan array binding signal (z-score) [1]: -0.1
glycan array binding signal (z-score) [2]: -0.074
glycan array binding signal (z-score) [3]: -0.139
glycan array binding signal (z-score) [4]: -0.114
glycan array binding signal (z-score) [5]: -0.126
glycan array binding signal (z-score) [6]: -0.106
glycan array binding signal (z-score) [7]: -0.147
glycan array binding signal (z-score) (GlcNAc(b1-3)GalNAc): -0.101
glycan array binding signal (z-score) (GlcNAc(b1-3)Man): -0.13
glycan array binding signal (z-score) [8]: -0.099
glycan array binding signal (z-score) [9]: -0.174
glycan array binding signal (z-score) [10]: -0.113
glycan array binding signal (z-score) [11]: -0.184
glycan array binding signal (z-score) [12]: -0.16
glycan array binding signal (z-score) (GlcNAc(b1-4)GlcNAc): -0.116
glycan array binding signal (z-score) [13]: -0.118
glycan array binding signal (z-score) [14]: -0.14
glycan array binding signal (z-score) [15]: -0.099
glycan array binding signal (z-score) [16]: -0.174
glycan array binding signal (z-score) [17]: -0.13
glycan array binding signal (z-score) (GlcNAc(b1-6)GalNAc): -0.128
glycan array binding signal (z-score) [18]: -0.123
glycan array binding signal (z-score) (Kdn(a2-3)Gal(b1-3)GalNAc): -0.073
glycan array binding signal (z-score) (Kdn(a2-3)Gal(b1-3)GlcNAc): -0.169
glycan array binding signal (z-score) (Kdn(a2-3)Gal(b1-4)Glc): -0.079
glycan array binding signal (z-score) (Kdn(a2-3)Gal(b1-4)GlcNAc): -0.095
glycan array binding signal (z-score) [19]: -0.004
glycan array binding signal (z-score) (Kdn(a2-6)Gal(b1-4)GlcNAc): -0.088
glycan array binding signal (z-score) [20]: -0.13
glycan array binding signal (z-score) [21]: -0.081
glycan array binding signal (z-score) (Man(a1-2)Man(a1-3)Man): -0.126
glycan array binding signal (z-score) [22]: -0.141
glycan array binding signal (z-score) [23]: -0.152
glycan array binding signal (z-score) [24]: -0.098
glycan array binding signal (z-score) [25]: -0.157
glycan array binding signal (z-score) [26]: -0.062
glycan array binding signal (z-score) [27]: -0.124
glycan array binding signal (z-score) (Man(a1-3)[Man(a1-6)]Man): -0.123
